{
  "source": "patent US12090125B2",
  "about": "“Combination therapy” (Novartis AG, priority 2019, dated 2024)",
  "key": {"[1]": {"system": "patients with type 2 diabetes", "conditions": "Mean ± Standard Error"}, "[2]": {"system": "patients with type 2 diabetes", "test": "VERIFY study: time to first adjudicated macrovascular event", "conditions": "in vivo"}, "[3]": {"system": "patients with type 2 diabetes", "test": "VERIFY study: rate of loss in glycaemic control in fasting plasma glucose (FPG)", "conditions": "Mean ± Standard Error"}, "[4]": {"system": "patients with type 2 diabetes", "test": "VERIFY study: rate of change of insulin sensitivity from baseline to end of study", "conditions": "Mean ± Standard Error"}, "[5]": {"system": "patients with type 2 diabetes", "conditions": "Mean ± Standard Error", "remark": "listed apart in the source"}, "[6]": {"system": "patients with type 2 diabetes", "test": "VERIFY study: time to initial treatment failure (HbA1c at least 53 mmol/mol (7.0%) at two consecutive scheduled visits, period 1)", "conditions": "for Time to initial treatment failure: Number (95% Confidence Interval)"}, "[7]": {"conditions": "From Week 13 to end of Period 1"}, "[8]": {"conditions": "From Week 13 to end of Period 2"}},
  "note": "Read-outs that look alike come from different tables or passages of the source.",
  "data": [
    {"smiles": "CN(C)C(=N)NC(=N)N", "note": "[Placebo + metformin, N,N-dimethylbiguanide]", "values": [
      {"measurement": "Rate of loss of beta cell function from baseline to end of study", "setting": "[1]; [7]", "result": "−0.53 ± 0.18 Rate (%)"},
      {"measurement": "Rate of loss of beta cell function from baseline to end of study", "setting": "[1]; [8]", "result": "−0.43 ± 0.15 Rate (%)"},
      {"measurement": "Rate of loss of beta cell function from baseline to end of study", "setting": "[1]; From Week 13 to end of study", "result": "−0.46 ± 0.05 Rate (%)"},
      {"measurement": "absolute cumulative number of recurrent events (macrovascular)", "setting": "[2]", "result": 44},
      {"measurement": "adjudicated first macrovascular events", "setting": "[2]", "result": "33 (3.3%) patients (%)"},
      {"measurement": "Rate of loss in glycemic control in Fasting Plasma Glucose (FPG) during Period 1", "setting": "[3]", "result": "0.26 ± 0.01 Rate (%)"},
      {"measurement": "Rate of loss in glycemic control in Fasting Plasma Glucose (FPG) over time during Period 2", "setting": "[3]", "result": "0.99 ± 0.19 Rate (%)"},
      {"measurement": "Rate of change in insulin sensitivity from baseline to end of study", "setting": "[4]; [7]", "result": "0.41 ± 1.66 Rate (%)"},
      {"measurement": "Rate of change in insulin sensitivity from baseline to end of study", "setting": "[4]; [8]", "result": "−0.99 ± 1.24 Rate (%)"},
      {"measurement": "Rate of change in insulin sensitivity from baseline to end of study", "setting": "[4]; From Week 13 to end of study", "result": "−1.01 ± 1.17 Rate (%)"},
      {"measurement": "Rate of loss in glycemic control during Period 1", "setting": "[5]", "result": "0.27 ± 0.01 Rate (%)"},
      {"measurement": "Rate of loss in glycemic control in HbA1c over time during Period 2", "setting": "[5]", "result": "1.02 ± 0.12 Rate (%)"},
      {"measurement": "Time to initial treatment failure", "setting": "[6]; >Year 5", "result": "74.39 Rate (%)"},
      {"measurement": "Time to initial treatment failure", "setting": "[6]; Weeks 13-52", "result": "19.97 Rate (%)"},
      {"measurement": "Time to initial treatment failure", "setting": "[6]; Year 2", "result": "34.67 Rate (%)"},
      {"measurement": "Time to initial treatment failure", "setting": "[6]; Year 3", "result": "48.21 Rate (%)"},
      {"measurement": "Time to initial treatment failure", "setting": "[6]; Year 4", "result": "59.29 Rate (%)"},
      {"measurement": "Time to initial treatment failure", "setting": "[6]; Year 5", "result": "66.57 Rate (%)"},
      {"measurement": "incidence of initial treatment failure during period 1", "setting": "[6]; in vivo", "result": "614 (62.1%) patients (%)"}
    ]}
  ]
}
